Measurements: PubChem BioAssay (Tox21)
Inconclusive results are not listed. Calls follow the shape of the dose curve; as a rule, active = well fitted curve in the direction sought with a large enough effect in the repeat runs; inconclusive = weak or mixed curves; inactive = no such curve, though single readings can be large; an effect the other way counts as inactive or inconclusive. Some compounds were tested as several samples or in several runs, with calls that do not always agree. Some entries of the source have several records that differ or are many. This is not the full list of results. The source may hold further records. Values that stand side by side are repeated measurements (runs, samples, wells, individuals or studies). Records carry a tag for their origin. A, B and so on number the origins entry by entry. Marks such as (2×) say how often a value occurs here.

Key:
[1] = qHTS assay to identify small molecule antagonists of the glucocorticoid receptor (GR) signaling pathway - cell viability counter screen (AID 720693); also: nearly all actives have a fitted effect of over 55% in size
[2] = qHTS assay for identifying genotoxic compounds that show differential cytotoxicity against isogenic chicken DT40 cell lines with known DNA damage response pathways - Rev3 mutant cell line (AID 743014); also: nearly all actives have a fitted effect of over 55% in size
[3] = qHTS assay to identify small molecule antagonists of the androgen receptor (AR) signaling pathway using the MDA cell line - cell viability counter screen (AID 743041; also: nearly all actives have a fitted effect of over 45% in size)
Outline: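 Viability read by CellTiter-Fluor fluorescence in the same wells as the antagonist screen, added after 15.5 h of a 16 h, 37C exposure. Human breast carcinoma MDA-kb2 AR-luc cells, compounds co-dosed with agonist R1881.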

[4] = qHTS assay to identify small molecule agonists of the constitutive androstane receptor (CAR) signaling pathway - cell viability counter screen (AID 1224836); also: nearly all actives have a fitted effect of over 45% in size
Outline: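 Fluorescence from CellTiter-Fluor indicates live cells after 23 h exposure. The human hepatoma line expresses hCAR and a CYP2B6-2.2kb reporter. Incubation medium contains 0.75 uM PK11195 (final).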

[5] = qHTS assay to identify small molecule antagonists of the constitutive androstane receptor (CAR) signaling pathway - cell viability counter screen (AID 1224837); also: nearly all actives have a fitted effect of over 45% in size
Outline: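 In quantitative HTS format, compounds at 15 concentrations were applied to HepG2 cells double-transfected with hCAR and CYP2B6-2.2kb under 50 nM CITCO stimulation; live-cell protease activity was read after 23 hr via CellTiter-Fluor.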

[6] = qHTS assay to identify small molecule antagonists of the progesterone receptor (PR) signaling pathway - cell viability counter screen (AID 1346798); also: nearly all actives have a fitted effect of over 50% in size
Outline: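 Viability was determined by ATP-based luminescence (CellTiter-Glo) in PR-UAS-bla HEK293T cells cultured in 2% charcoal-stripped serum and incubated 16 hr with compounds under R5020 stimulation.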

[7] = qHTS assay to identify small molecule antagonists of the peroxisome proliferator-activated receptor gamma (PPARg) signaling pathway - cell viability counter screen (AID 743194); also: nearly all actives have a fitted effect of over 55% in size
Outline: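 Viability was measured as CellTiter-Glo luminescence in GeneBLAzer PPARg UAS-bla HEK293H cells. These cells had been exposed 17 h at 37 C to compounds together with rosiglitazone at 50 nM final, with the beta-lactamase readout taken in the same wells.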

[8] = A CellTox Green Cytotoxicity Assay to monitor cytotoxicity in HEK293 cells - 24 hour (AID 1224875); also: nearly all actives have a fitted effect of over 45% in size
Outline: (§1)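 Homogeneous no-lysis format: HEK293 cell suspension mixed with CellTox Green reagent, seeded, incubated 5 h at 37 C/5% CO2, then dosed by pintool with compound in DMSO.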

[9] = A CellTox Green Cytotoxicity Assay to monitor cytotoxicity in HEK293 cells - 16 hour (AID 1224888); also: nearly all actives have a fitted effect of over 35% in size
Outline: as §1
% is scaled to controls: 0 for no effect and ±100 for the full control effect; potency is read from the fitted curve at half-maximal effect.

In the case of CC(C)(C)c1cc(O)ccc1O, the Potency [1] is reported as “inactive (3×) and active: 21.3 µM [separate samples]” and the Potency [2] is reported as “inactive and active: 6.68 µM, 38.6 µM, 7.7 µM [separate samples]”.

With O=C1C2CC=CCC2C(=O)N1SC(Cl)(Cl)Cl (stereo not drawn) the Potency [1] was “inactive [sample A] and inactive [sample B] and active: 12.1 µM [sample C]”, the Potency [3] was “active: 22.1 µM [sample A] and inactive [sample B] and active: 23.9 µM [sample C]” and the Potency [4] was “inactive [sample A] and active: 26.9 µM [sample B]”. The Potency [5] was “inactive [sample A] and active: 19 µM [sample B]” and the Potency [6] was “inactive [sample A] and active: 60.1 µM [sample B]”.

For C[C@H]1CCCC(=O)CCC/C=C/c2cc(O)cc(O)c2C(=O)O1, the Potency [4] was “active: 52.5 µM [sample A] and inactive [sample B]” and the Potency [5] was “active: 52.5 µM [sample A] and inactive [sample B]”.

For ClC1=C(Cl)C2(Cl)C(CBr)CC1(Cl)C2(Cl)Cl (stereo not drawn), the Potency [7] was “active: 43.6 µM [sample A] and inactive [sample B]”, the Potency [8] was “active: 54.9 µM [sample A] and inactive [sample B]” and the Potency [9] was “active: 54.9 µM [sample A] and inactive [sample B]”.

For C=CC1(C)OC(=O)N(c2cc(Cl)cc(Cl)c2)C1=O (stereo not drawn), the Potency [6] was “active: 48.3 µM [sample A] and inactive [sample B]”.
